Experimental data published in the supplement of paper PMC3334620.
Whole data set: some 33,000 sequences, median “E-score (-0.5 to 0.5)” near -0.016, cut for the highest 2% near 0.32. The list shows a part of the results.

Molecular target: T1, Stp1 (UniProt B3LFK1)
T1 sequence: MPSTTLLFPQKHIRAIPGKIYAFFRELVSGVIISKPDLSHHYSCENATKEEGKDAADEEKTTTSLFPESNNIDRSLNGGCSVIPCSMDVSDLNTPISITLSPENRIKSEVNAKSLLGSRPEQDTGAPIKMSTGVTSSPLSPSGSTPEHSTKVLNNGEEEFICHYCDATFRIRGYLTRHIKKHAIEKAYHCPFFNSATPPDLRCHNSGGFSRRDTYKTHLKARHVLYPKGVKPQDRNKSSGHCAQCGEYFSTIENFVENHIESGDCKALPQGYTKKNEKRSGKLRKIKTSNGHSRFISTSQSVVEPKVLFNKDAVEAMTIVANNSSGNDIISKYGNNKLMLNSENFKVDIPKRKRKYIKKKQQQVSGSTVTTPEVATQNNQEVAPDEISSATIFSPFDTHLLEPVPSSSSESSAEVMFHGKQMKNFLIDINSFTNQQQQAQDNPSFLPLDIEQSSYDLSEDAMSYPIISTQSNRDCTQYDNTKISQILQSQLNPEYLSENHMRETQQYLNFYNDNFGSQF
Test: PBM E-score (8-mer binding enrichment) (E-score (-0.5 to 0.5)); higher = stronger / more preferred TF binding; most listed sequences are background and not binding sites
Details: protein concentration: 200 nM; construct: GST-full length
Outline: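 Universal all-10-mer Agilent arrays, double-stranded by primer extension on fresh or once-stripped slides, were probed with about 100-200 nM GST-tagged yeast transcription factors made by PURExpress. Fluorescent anti-GST detected bound protein, and masliner normalised the scans. E-scores from the Universal PBM Analysis Suite were given to each ungapped eight-base word pooled with its reverse complement.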

Sequence	PBM E-score
AAAGCTGC	0.0495
CATGCAGC	0.0394
AGAGAGGG	-0.227
GGAGTGCC	0.27
CATAAGAG	0.0766
AGAAGCTC	-0.277
AACGGTGG	-0.26
ACGATGAC	0.0649
CGCGTCCG	-0.0671
GCCCGACA	-0.101
AACCGATG	0.016
CCAAGATC	-0.0906
ATCTTCCC	-0.145
AAATGTCT	-0.057
AATGAGCC	0.0958
GTCAATCA	-0.0685
CGCTCGTC	-0.0772
ACTGCACG	0.033
CCCCGAGA	-0.193
GCCTACAA	0.14
AACACTTG	-0.12
TCGAGGAA	-0.119
GTTCTAAA	0.111
CGGAGTTA	-0.0286
CGCTCCAA	-0.0696

Sequence	PBM E-score
ACGTTTCC	-0.153
CGTCCGCA	0.0445
GATGATTA	0.113
TCGAAAAA	0.156
AGGCATGA	-0.0157
ACTCCTCC	-0.213
AATGCTAT	-0.0333
GGGCTAGA	-0.142
AAACCGTC	-0.0591
ACGTAAAC	-0.0813
TACTTCGA	0.211
ACAACTAG	-0.0839
GGTTCCAA	0.112
AACAGCGC	0.0288
TCTCCTAA	-0.132
AAGCCTCA	-0.0215
GTCGGCAA	0.0611
CCTGTTGC	-0.107
GGGTCTCA	-0.199
CAGCGCCC	0.188
CTAATTGC	0.0448
AATAGGCT	-0.0149
AAGACCCG	-0.0344
GGGATAAC	-0.265
CCGAGCGA	0.103

Sequence	PBM E-score
CAAATGCC	0.227
GGAGCTTA	-0.198
GGGCCTCA	-0.0568
ACTTTATC	-0.0288
GAACTCCC	-0.0954
CGATTTGA	0.0308
GGGTGGAC	-0.176
GACCCCGA	-0.197
AGCTGCAA	-0.0232
ACCGACTA	-0.17
GTCACGAC	-0.0607
ATAACCAC	-0.0312
CCCAACAG	-0.162
AAATCAGT	-0.00013
ATTGGAGC	0.0604
CGCCGTTA	0.381
GGTTCCCA	-0.174
GGAATGAC	-0.157
AAGTCACA	-0.0584
CAAACGCC	0.258
CAGACGAC	-0.28
ACGTTAGA	0.108
GTTTAACA	-0.0642
AGTACCTC	-0.0436
GTGCCTTA	0.367

Sequence	PBM E-score
CCTCCACA	-0.0389
CAAGTTGC	0.00105
GAACAGGA	-0.158
ATGTCTAA	0.0582
AGTGATAC	-6e-05
GATACGAC	0.0153
GGCTTCCC	-0.0604
AGGTCGAT	0.136
AAGAATCT	-0.0783
GGGCCAGA	-0.237
GACACCCA	-0.262
ACGTTCAT	-0.204
GATATCGA	0.0427
ATCCGCCA	-0.0958
GAACCAAC	-0.0803
GATCTCCA	-0.0306
ACTCTTAG	-0.0503
ATCGGCCG	0.15
CAATTAGG	0.104
CTCCAATA	0.118
ACAAAGGA	0.0216
AGACGTCG	-0.186
GACGGTAA	-0.0159
CACCTATA	-0.114
TACACTGA	-0.0513

Sequence	PBM E-score
GCCCTGAC	-0.0597
ACAGACTG	-0.204
ATGATTAA	0.222
TCACACGA	0.128
AGTATCGG	0.0387
ACATTCGT	-0.134
GAAGCGAA	-0.00767
AACGGGGT	-0.267
AGGGATCA	-0.15
ATTAATTC	0.3
AGCAACCC	-0.306
CACTGAGC	-0.0751
GTGAGAAC	-0.0964
CCCTCAAA	-0.0702
GTAAAGAC	0.0739
TAGCCGCA	0.348
GTCATGGA	-0.188
AAAGGACA	-0.0327
ACAAATGC	0.155
CGGAAACC	-0.275
AGAAAACA	0.12
TCCCAGCA	-0.159
ATTCATTA	0.254
CATTGTGG	-0.0605
GACCTCAC	0.00128

Sequence	PBM E-score
CATCGTTA	-0.161
AAGCCGTG	0.419
CGGGTTTC	0.148
AACAGATT	-0.0644
ATATCCTG	-0.0264
CGGTTAAC	-0.183
AGGCCTAC	-0.0947
CGGTATAA	0.00498
CGTTAAGC	0.0167
AAAACACT	0.141
CTTCACTC	-0.132
GGCTTACC	-0.155
CTGTTGCA	0.0698
AGACTGGC	-0.108
ACCTCTTC	-0.0189
GCTATCTA	-0.246
GAGGGCCA	-0.273
AAAACGCC	0.386
AGGCATCG	0.348
ACCTGCGC	0.064
AGGGACGC	-0.103
AGAACGTC	-0.075
GATTCTCA	0.0487
AGGCCCTC	-0.337
AACGAGAT	-0.0577

Sequence	PBM E-score
CCAAGTAC	-0.0924
GTACTGGA	-0.0214
AGTCCCGC	-0.219
ACGTTGGA	-0.0682
CAGCCTTC	-0.091
CCCTAACA	0.152
GAACGTAA	0.0655
GAGTCTGC	-0.195
AAGCTGTC	-0.113
ACTAGTAC	0.0933
ACTCCCAA	-0.149
CTCGAAAG	-0.053
CGTTCTAG	0.0253
CTAGACAG	-0.131
AATTAAGA	0.00198
GATCTTCA	-0.025
ACTAAAAA	0.1
GCCTTTTA	0.25
CAATGACA	0.113
CTACAGCA	-0.0439
GAGACCAA	-0.0978
ACGATGAG	0.0505
GTGTGCAA	-0.0959
GCTGTTGA	0.169
CCCTAATA	-0.0986

Sequence	PBM E-score
GCATTCAA	0.108
GAGACATA	-0.0964
CGATCACA	0.081
ACACACCT	-0.0579
CGACCGCG	-0.0161
CGCCTGAG	0.0354
GAAATAAA	0.117
AATGGTAA	0.135
CAAACTGA	0.0414
CATAAGTA	-0.138
CCACCCCA	-0.104
ATATTACG	0.186
CGGACGCA	0.11
ACCACGAG	-0.0233
AGCTTGTC	-0.0324
AATGATCG	-0.0176
ATTTATAG	0.00848
CGCCCGTA	-0.183
CGCCTCGC	0.394
ACATTAGC	0.059
ACTATGAT	-0.05
ACTTACTC	-0.151
CATTAGAA	0.0803
ATGGGACA	-0.14
GCACGGCC	0.415

Sequence	PBM E-score
AATTGAGA	0.111
CCGATTAC	0.039
GAGGCCAA	-0.164
ATCAAATC	0.0401
CAGGACAG	-0.133
GGGCACCC	-0.0477
ACCAGTAT	-0.033
AAGAAACA	0.23
TACCACTA	-0.0678
ACTGGGTA	-0.165
AAATTTCA	-0.0423
ACCTGGCA	0.00764
ATCTTATG	0.169
TGCTAACA	0.0225
ATTGGATA	-0.0216
CGTTTCAA	0.196
GTAGACCA	-0.11
AATATCGT	0.141
AGAATACA	0.0536
GATGGCGA	0.0798
CGGGAGGA	-0.0414
AGGGCAGG	-0.0487
ATTCTGCG	0.0136
GATGCTCA	-0.0782
AATCTGGC	-0.102

Sequence	PBM E-score
AACGAGCG	0.132
AAGTCGCG	0.107
ACAGTAAT	0.104
TAAAATAA	0.198
CGGACTTC	-0.168
GCTCGACC	-0.00701
CACCTATC	0.02
TCGGTTCA	-0.0318
CTACCGGA	-0.184
GGACAGTA	0.13
CTGCTTTA	0.0746
CACCTGAA	0.00559
CATTAAGG	0.055
CGACACCG	0.0193
AGCTATGG	-0.35
AAATAACT	0.237
ATACCATA	0.0791
CGTTGAGC	0.0153
ACGCCCGT	0.0535
TGGACGAA	0.178
CTGGTGCC	0.252
GGAGTGGA	-0.186
CAACCTAA	0.0337
GAAAGGCA	0.376
GTCGACGA	0.0158

Sequence	PBM E-score
CCCTGGTA	-0.202
ATCTGTAC	0.0678
CATGAAAC	0.0822
ACGGCGAA	0.465
TACGTCCA	-0.0569
AGTGATCG	-0.106
ATGAACGG	0.194
CTAGCGTC	-0.191
ACTGTATA	0.0748
CTGACGTA	-0.218
CTCGGTGA	-0.00917
AGGATCAC	-0.134
CCCTCAAG	-0.258
ACCTCAAC	-0.113
CCATCAGA	-0.153
CAAAGAAC	0.138
GTATAGAA	0.147
CCAGAAGA	-0.0522
CCTTTCAA	0.0517
ACGCGATG	-0.0652
CTCCCGAC	-0.159
AAGGCTTC	-0.034
GCGCAGAC	0.21
ACAGCCCC	-0.177
GAGAGATA	0.0131

Sequence	PBM E-score
CCTACAAG	-0.0854
ATGATAGA	-0.0649
CGACTCTA	-0.183
ACCAAACA	0.201
CCCTGACC	-0.133
CACCACAG	-0.131
GGGTGAGA	-0.211
CAGAAATG	0.0836
CGGTTCAG	-0.23
CCTCTTTA	-0.092
GTAGTGTA	0.0564
ATGGACAT	0.0787
AACCCATC	-0.212
ACCATTTC	0.0143
CCCGTAAG	-0.0633
GCGAGCCA	-0.162
CAGATCGG	0.00691
CGTACAGC	0.0658
ACTCTGCA	-0.124
ATTATTGG	0.00493
CCTAGATC	-0.254
GCTAAAGC	0.00155
GACCCAAA	-0.029
TAAGTGAA	0.0191
CGCCACCC	-0.0778

Sequence	PBM E-score
GGCAAGAC	0.13
ATCACCTG	-0.0957
CAAAATAC	0.139
CCAATTGA	-0.0301
GCCCTCCC	-0.141
AGCGATAT	0.048
ATGCACTA	0.0688
GTTATTCA	0.136
ATAATGTA	0.0185
CAGTGTTA	-0.03
AACAGGCG	-0.0221
GCGTGGCA	0.261
CCGCTTGA	0.171
GATCGACC	-0.0995
ACCCGACC	-0.227
TAGGGCAA	0.0639
CAGTCATA	-0.0911
CATGGACA	-0.0411
CAGCTATG	-0.158
ATACCCCG	-0.0762
CATTCAGC	-0.0399
AAGGGCAA	0.149
AGTGACAG	-0.0243
GATCAGAA	-0.244
CTACAAAG	-0.0173

Sequence	PBM E-score
CATGTCCA	0.0739
GTCGCGCA	-0.0403
CTACCCAA	-0.00763
AAATGTAA	0.207
AGTTTCTC	-0.051
GGCCTGAA	-0.011
ACTTGTCG	-0.0579
CAATCAAC	0.15
GGAAACCA	-0.233
GAAGGACA	0.0893
ACAGCGTA	-0.104
ACTCTACG	-0.081
AGTGGGGC	-0.231
GAAGTGCA	0.0643
TCACGTCA	-0.135
TTTGCAAA	0.129
GTCTAGCA	-0.136
AAGATAAT	0.0995
GCGGTCAA	0.0834
